Source: PubChem BioAssay AID686978 (National Center for Advancing Translational Sciences (NCATS), 2013)
“And” between values parts separate entries of the source, which are not always exact repeats. Equal entries are not always repeated. Hit rate of the full screen: of about 420,000 compounds, about 64,000 (15%) were called active. Inconclusive means that the source gave no clear call. Such entries were picked first, then a sample of the others. The call rests on the fitted dose curve; in most records, active means well fitted inhibition curve with a large enough effect; inconclusive means small, poorly fitted or top-dose-only effect; inactive means flat fitted curve, though single readings scatter. Potencies of inconclusive entries are left out as doubtful fits. The source holds several records for some structures; these can differ, active in one and inactive in another.

test: qHTS for Inhibitors of human tyrosyl-DNA phosphodiesterase 1 (TDP1): qHTS in cells in absence of CPT; conditions: DT40 Tdp1-/- hTDP1 cells, no CPT, ATP luminescence, 48 h; activity change, negative = growth inhibition: at 46.2 µM (top of the series) unless noted; further: nearly all actives have a fitted effect of over 55% in size
Summary of the method: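 Cells were dispensed at 400 per well, compounds added by pin tool, plates incubated ≥48 hr at 37 °C, then CellTiter-Glo added for 30 min at room temperature before luminescence reading. Line: DT40 Tdp1-/- complemented with hTDP1; camptothecin omitted.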
On the % scale 0 is the no-effect control and ±100 the full control effect; potency means the concentration at half of the fitted maximal effect; tags describe the fitted curve by direction and shape.

| Structure (SMILES) | Potency | activity change, negative = growth inhibition |
| --- | --- | --- |
| CCOC(=O)N1CCN(C(=O)CSCC(=O)Nc2nc(-c3cccs3)cs2)CC1 | inconclusive [inhibitor, partial curve, poor fit] |  |
| O=C(c1ccc(Cl)cc1)N1N=CCC1(O)c1ccc(Cl)cc1 (configuration not stated) | inconclusive [inhibitor, single point] |  |
| COc1cc(N2C(=O)C=CC2=O)c(OC)cc1Cl | active: 1.3 µM |  |
| COc1ccccc1NS(=O)(=O)c1cccc(NC(=O)NC2CCCCC2)c1 | inconclusive [inhibitor, single point] |  |
| N#Cc1nc(COc2ccccc2F)oc1N1CCCCCC1 | inconclusive [inhibitor, single point] |  |
| Cc1ccc(CN(c2ccc(C(=O)NCc3cccnc3)cc2)S(C)(=O)=O)cc1 | inactive |  |
| O=C(CSc1nc(Nc2ccccc2)nc(N2CCOCC2)n1)Nc1ccc2c(c1)OCCO2 | inactive |  |
| O=C(O)CCCCCn1c(SCc2cc(=O)n3ccccc3n2)nc2ccsc2c1=O | inconclusive [inhibitor, single point] |  |
| COc1ccccc1C(=O)COC(=O)C1CCN(S(=O)(=O)c2ccccc2)CC1 | inactive |  |
| Cc1cc(C)nc(N/N=C/c2cccc3ccccc23)n1 | inconclusive [inhibitor, single point] |  |
| Cc1ccc(C(=O)C[n+]2cc(-c3ccccc3)n3c2CCCCC3)cc1 | active: 3.16 µM and active: 1.46 µM |  |
| COc1ccc(N2CCN(C(=O)c3cc4c(-c5ccccc5F)nn(C)c4s3)CC2)cc1 | active: 9.2 µM |  |
| COC(=O)c1ccc(Cl)cc1NC(=O)N1CC=C(c2c[nH]c3ccccc23)CC1 | inconclusive [inhibitor, single point] |  |
| COc1ccccc1N1CCN(C(=O)c2c(-c3ccccc3Cl)noc2C)CC1 | active: 20.6 µM |  |
| Cn1c2ccccc2c2cc(/C=C(\NC(=O)c3ccccc3)C(=O)O)ccc21 | inactive |  |
| Cc1cccc(OCCCC(=O)Nc2sc3c(c2C(N)=O)CCC(C)C3)c1 (configuration not stated) | inconclusive [inhibitor, partial curve] |  |
| O=C(N/N=C/c1cccc(Oc2ccccc2)c1)c1cc[n+]([O-])cc1 |  | inconclusive: -56.1% [inhibitor] |
| O=C(Nc1ccccc1)N1CCCC(CNS(=O)(=O)Cc2ccccc2)C1 (configuration not stated) | inactive |  |
| Cc1ccc(/C=N/NC(=O)c2c[nH]c3ccccc23)s1 | inconclusive [inhibitor, single point] |  |
| CCS(=O)(=O)CCSc1nc2ccccc2o1 | inactive |  |
| CCN(CC)c1nc(-c2ccc(C(C)(C)C)cc2)nc2ccccc12 | inconclusive [inhibitor, single point] |  |
| COc1cc(C2SCC(=O)N2Cc2ccccc2)cc(OC)c1OC (configuration not stated) | inactive |  |
| O=C(CSc1nc2ccccc2n1Cc1ccccc1Cl)N/N=C/c1ccccc1C(=O)O | inconclusive [inhibitor, single point] |  |
| Cc1ccc(NS(=O)(=O)c2ccc3c(c2)CCC(=O)N3)cc1C | inconclusive [inhibitor, single point] |  |

| Structure (SMILES) | Potency | activity change, negative = growth inhibition |
| --- | --- | --- |
| O=C(CSCC(=O)Nc1cccc2ccccc12)Nc1cccc2ccccc12 | inconclusive [inhibitor, single point] |  |
| Oc1ccccc1Nc1nc(-c2ccccc2)c2cc(Cl)ccc2n1 | inconclusive [inhibitor, single point] |  |
| COc1cccc(-c2ccc3ncnc(N4CCN(C)CC4)c3c2)c1 | active: 23.1 µM |  |
| Cc1ccc(C)c(NC(=O)CSc2nc(=O)n(CCN3CCOCC3)c3c2CCCC3)c1 | inactive |  |
| O=C1CS(=O)(=O)C2(C(=O)N(Cc3cccc(F)c3)c3ccccc32)N1c1ccccc1 (configuration not stated) | inconclusive [inhibitor, single point] |  |
| CC(=O)O/N=C/c1c(NCc2ccccc2)nc2c(C)cccn2c1=O |  | inconclusive: -34.7% [inhibitor] |
| COc1ccc(-c2noc(-c3ccoc3C)n2)cc1OC | inactive |  |
| COc1cc(=O)n2c(c1C(=O)NC(C)c1ccco1)CCN(C(=O)c1cn3ccc(C)cc3n1)CC2 (configuration not stated) | inactive |  |
| COc1ccc2c(CNCC(C)c3ccccc3)c(C(=O)O)n(Cc3ccc(F)cc3Cl)c2c1 (configuration not stated) | inactive |  |
| N#CC(C#N)=C(N)CSc1cccc[n+]1[O-] | inconclusive [inhibitor, single point] |  |
| CN(CC(=O)Nc1ccccc1C(F)(F)F)C(=O)C1CCN(S(=O)(=O)c2ccc3c(c2)OCCO3)CC1 | inconclusive [inhibitor, single point] |  |
| [O-][N+](=Cc1ccccc1)c1ccc(Cl)cc1 | active: 20.6 µM |  |
| CC(C)(C)OC(=O)C[C@H]1C/C=C\C[C@@H](CC(=O)NCCO)C(=O)NC[C@@H](c2ccccc2)OC1=O | inactive |  |
| Cc1ccccc1-c1nc(-c2ccc(NC(=O)c3ccc(Br)o3)cc2)no1 | inconclusive [inhibitor, single point] |  |
| CC(C)(C)OC(=O)C[C@H]1C/C=C\C[C@H](CC(=O)NCCO)C(=O)N[C@@H](c2ccccc2)COC1=O | inactive |  |
| COc1ccccc1C(=O)NCCSCc1ccccc1Cl | inconclusive [inhibitor, single point] |  |
| COc1cc(C2C3=C(CC(C)(C)CC3=O)OC(N)=C2[N+](=O)[O-])ccc1O (configuration not stated) | inconclusive [inhibitor, single point] |  |
| CCOc1ccc(CCNC(=O)CCc2c(C)nc3c(c(C)nn3-c3ccccc3)c2C)cc1OCC | active: 13 µM |  |
| CSc1nc(N)c2ncn([C@H]3O[C@H](COP(=O)(O)OP(=O)(O)O)[C@@H](O)[C@@H]3O)c2n1 | inconclusive [inhibitor, single point] |  |
| CCOc1cc(C2C(C(=O)OC(C)C)=C(C)NC3=C2C(=O)CCC3)cc([N+](=O)[O-])c1O (configuration not stated) | inconclusive [inhibitor, full curve, poor fit] |  |
| Cn1nccc1NS(=O)(=O)c1ccc(NC(=O)C(F)(F)F)cc1 | inactive |  |
| Cc1[nH]c2ccc(-c3nnc(SCC(=O)NCc4ccco4)n3Cc3ccccc3)cc2c1C | active: 23.1 µM |  |
| O=[N+]([O-])c1ccc(N/N=C2\CC3CC=CC23)cc1 (configuration not stated) | inconclusive [inhibitor, single point] |  |
| COC(=O)c1ccc(NC(=O)Cc2ccc(F)cc2)cc1 | inconclusive [inhibitor, single point] |  |

| Structure (SMILES) | Potency | activity change, negative = growth inhibition |
| --- | --- | --- |
| COc1cc(/C(C#N)=C/c2ccccc2)c([N+](=O)[O-])cc1OC | inconclusive [inhibitor, partial curve] |  |
| CCOc1ccc(NC(=O)c2ccc(NC(=O)CCS(=O)(=O)c3cccs3)cc2)cc1 | inactive |  |
| Cc1cccc(N2CCN(C(=O)c3c(-c4ccccc4)noc3C)CC2)c1C | active: 1.46 µM |  |
| C=CCn1c(SCC(=O)NCc2ccco2)nnc1-c1ccc2ccccc2n1 | active: 18.4 µM |  |
| O=C1SC(SC(=Nc2ccccc2)Nc2ccccc2)C(=O)N1c1ccccc1 (configuration not stated) | inconclusive [inhibitor, single point] |  |
| Cc1ccc(C2CC(=O)N(Cc3ccccc3F)c3c2c(C)nn3-c2nc(C)cc(C)n2)cc1 (configuration not stated) | inconclusive [inhibitor, single point] |  |
| O=c1oc2ccc(Br)cc2cc1-c1nc2c(s1)CCc1ccccc1-2 | inactive |  |
| CCn1ccnc1CN1CCCC(C(=O)c2ccc3cc(OC)ccc3c2)C1 (configuration not stated) | active: 4.61 µM |  |
| O=C(O)c1cc2n(n1)C(C(F)(F)F)CC(c1ccco1)N2 (configuration not stated) | inactive |  |
| COc1ccc(C(c2nnnn2Cc2ccccc2)N2CCN(C(=O)c3ccco3)CC2)cc1 (configuration not stated) |  | inconclusive: -35.1% [inhibitor] |
| O=C(NC(=S)NCCc1ccccc1)c1cccc(Cl)c1 | inactive |  |
| O=C(NCCO)c1cccc(Nc2nc(-c3ccccc3)c3cc(Cl)ccc3n2)c1 | inconclusive [inhibitor, single point] |  |
| CC(C)[C@H](NS(=O)(=O)c1ccccc1)C(=O)OCc1cc([N+](=O)[O-])cc2c1OCOC2 | inconclusive [inhibitor, single point] |  |
| CC1(C)C(=O)Nc2ccccc2N1C(=O)COC(=O)c1ccc([N+](=O)[O-])o1 | inactive |  |
| Cc1cc([N+](=O)[O-])nn1CC(=O)NC(C)c1ccccc1 (configuration not stated) | inactive |  |
| c1csc(CNc2ccnc(-c3ccoc3)n2)c1 | inactive |  |
| CC1CCCN(C(=O)C2(NC(=O)Nc3cccc(F)c3)CCCCC2)C1 (configuration not stated) | inactive |  |
| CN(C[C@H](c1ccccc1)N(C[C@H](Cc1ccccc1)N(CCc1ccccc1)N=O)N=O)N=O | inconclusive [inhibitor, single point] |  |
| COc1ccc(C(CNC(=O)C(=O)NC2CCCCC2)N2CCN(C)CC2)cc1 (configuration not stated) | inactive |  |
| CCc1cccc2c1NC(=O)[C@]21[C@@H]2C(=O)N(Cc3ccccc3)C(=O)[C@@H]2[C@@H]2CCCN21 | inconclusive [inhibitor, single point] |  |
| Cc1cccc(C2=NNC(=O)C(c3ccc(Cl)cc3)C2)c1 (configuration not stated) | inconclusive [inhibitor, single point] |  |
| C[C@]12CCC(=O)C=C1CC[C@H]1[C@@H]3CC[C@](O)(C(=O)CO)[C@@]3(C)C[C@H](O)[C@@]12F | inactive and active: 26.6 µM |  |
| Cc1[nH]c2ccccc2c1C(=O)CSC(=S)N(C)C | inconclusive [inhibitor, single point] |  |
| CCn1cc(C(=O)N2CCN(c3cccc(Cl)c3)CC2)c(=O)c2cc(S(=O)(=O)N3CCOCC3)ccc21 | inactive |  |
